Assay results taken from PMC4336329 (PLoS ONE, 2015).
The campaign covered roughly 310,000 compounds. About 14,000 (4.5%) showed an effect of 50% or more. Effects have a minus sign here. Some of the results follow.

target: human ether-à-go-go-related gene (hERG) potassium channel (human, UniProt Q12809); experiment: primary screen, population patch clamp on CHO cells stably expressing hERG
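Note: peak tail current of the secondary pulse compared with the same well before compound.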

Sequence of human ether-à-go-go-related gene (hERG) potassium channel (Q12809 whole entry, looked up): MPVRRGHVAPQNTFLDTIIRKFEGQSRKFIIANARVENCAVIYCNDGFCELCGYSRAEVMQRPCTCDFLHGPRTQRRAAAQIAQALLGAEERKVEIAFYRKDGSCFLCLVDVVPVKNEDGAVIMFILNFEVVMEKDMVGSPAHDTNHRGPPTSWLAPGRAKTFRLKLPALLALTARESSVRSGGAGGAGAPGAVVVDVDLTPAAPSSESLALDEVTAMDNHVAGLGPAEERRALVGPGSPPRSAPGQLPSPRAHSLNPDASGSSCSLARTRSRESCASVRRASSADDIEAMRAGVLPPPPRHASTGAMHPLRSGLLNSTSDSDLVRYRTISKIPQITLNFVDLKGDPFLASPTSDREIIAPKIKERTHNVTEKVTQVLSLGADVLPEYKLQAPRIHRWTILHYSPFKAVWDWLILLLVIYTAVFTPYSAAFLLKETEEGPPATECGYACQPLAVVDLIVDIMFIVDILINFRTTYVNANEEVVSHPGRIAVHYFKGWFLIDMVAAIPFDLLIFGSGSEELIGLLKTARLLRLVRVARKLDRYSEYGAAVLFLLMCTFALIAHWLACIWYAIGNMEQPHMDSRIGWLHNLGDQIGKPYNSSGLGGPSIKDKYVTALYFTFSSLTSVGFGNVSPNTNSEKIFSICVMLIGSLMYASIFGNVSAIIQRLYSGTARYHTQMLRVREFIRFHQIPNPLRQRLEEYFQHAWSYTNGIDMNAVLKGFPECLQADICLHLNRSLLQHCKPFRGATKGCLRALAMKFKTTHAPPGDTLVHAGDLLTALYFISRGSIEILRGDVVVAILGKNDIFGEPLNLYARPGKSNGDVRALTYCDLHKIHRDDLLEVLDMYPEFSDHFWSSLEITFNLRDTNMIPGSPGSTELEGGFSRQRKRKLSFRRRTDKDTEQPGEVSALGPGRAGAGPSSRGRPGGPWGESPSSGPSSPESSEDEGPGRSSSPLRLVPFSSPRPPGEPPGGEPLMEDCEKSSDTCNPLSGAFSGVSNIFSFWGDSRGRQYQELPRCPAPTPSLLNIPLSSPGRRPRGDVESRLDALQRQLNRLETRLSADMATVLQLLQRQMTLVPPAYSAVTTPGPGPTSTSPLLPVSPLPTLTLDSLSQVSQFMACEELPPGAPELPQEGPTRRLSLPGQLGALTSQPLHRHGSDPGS

Question: For `O=C(CN1C(=O)/C(=C/c2ccco2)SC1=S)Nc1ccc(C(=O)O)c(O)c1`, which “hERG current change (%, negative = inhibition) at 10uM” value is on record?
Answer: 18.1%

Question: Which “hERG current change (%, negative = inhibition) at 10uM” value does the source give for `CC1CC(C)CN(CCCNC(=O)c2ccc3nc(N4CCOCC4)sc3c2)C1` (centres unmarked) here?
Answer: -19.5%

Question: How did the “hERG current change (%, negative = inhibition) at 10uM” value turn out when `O=C(COC(=O)c1ccco1)Nc1nnc(-c2ccccc2)o1` was run?
Answer: 21.4%

Question: For `O=c1[nH]c(C2CCN(S(=O)(=O)c3ccc(F)cc3)CC2)nc2c1nnn2Cc1ccc2c(c1)OCCO2`, which “hERG current change (%, negative = inhibition) at 10uM” value is on record?
Answer: 11.1%

Question: How did the “hERG current change (%, negative = inhibition) at 10uM” value turn out when `O=C1N[C@@H](Cc2cn(S(=O)(=O)c3ccc([N+](=O)[O-])cc3)c3ccccc23)C(=O)N[C@H]1Cc1ccccc1` was run?
Answer: 10.5%

Question: How did the “hERG current change (%, negative = inhibition) at 10uM” value turn out when `Cc1c(Cl)ccc2sc(NC(=O)c3ccco3)nc12` was run?
Answer: 18.9%

Question: For `CCOC(=O)c1ccc(Nc2nnc(C(C)(C)C)c(=O)[nH]2)cc1`, which “hERG current change (%, negative = inhibition) at 10uM” value is on record?
Answer: -21.7%

Question: How did the “hERG current change (%, negative = inhibition) at 10uM” value turn out when `COc1ccc(NC(=O)CSc2nnc(C)n2N)cc1S(=O)(=O)N1CCCCC1` was run?
Answer: 2.55%

Question: `Cc1ccc(Cl)cc1NC(=S)N(CCCN1CCN(C)CC1)Cc1cccs1` was tested. Which “hERG current change (%, negative = inhibition) at 10uM” value did it give?
Answer: -61.7%

Question: `COc1cccc(/C=N/NC(=O)Cn2nc(C)c([N+](=O)[O-])c2C)c1O` was tested. Which “hERG current change (%, negative = inhibition) at 10uM” value did it give?
Answer: -13.1%

Question: How did the “hERG current change (%, negative = inhibition) at 10uM” value turn out when `COc1ccc(CCNC(=O)CSc2nnc(CNC(=O)c3c(F)cccc3Cl)o2)cc1OC` was run?
Answer: -8.07%

Question: Which “hERG current change (%, negative = inhibition) at 10uM” value does the source give for `CC(=O)Nc1ccc(N)cc1` here?
Answer: 11.2%

Question: `COc1cccc(C2c3c(oc4ccccc4c3=O)C(=O)N2CCCN(C)C)c1OC` (centres unmarked) was tested. Which “hERG current change (%, negative = inhibition) at 10uM” value did it give?
Answer: 22.8%

Question: For `O=C(Nc1c2c(nn1-c1ccc(F)cc1)CS(=O)C2)c1ccc2c(c1)OCO2` (centres unmarked), which “hERG current change (%, negative = inhibition) at 10uM” value is on record?
Answer: 16.4%

Question: With `O=C(CSc1nnc(NCc2ccccc2)s1)N1CCOCC1` as the compound, how does the “hERG current change (%, negative = inhibition) at 10uM” value read?
Answer: 2.09%

Question: How did the “hERG current change (%, negative = inhibition) at 10uM” value turn out when `Cc1cc(=O)[nH]c(Sc2c(-c3ccccc3)c3ccccc3[nH]c2=O)n1` was run?
Answer: -4.45%

Question: With `COc1cc2c(C(=O)O)c(C)n(C)c2c2ccccc12` as the compound, how does the “hERG current change (%, negative = inhibition) at 10uM” value read?
Answer: 31.4%

Question: Which “hERG current change (%, negative = inhibition) at 10uM” value does the source give for `CC(=O)c1cn(-c2ccc(Cl)cc2)c(=O)[nH]c1=O` here?
Answer: 8.47%

Question: With `CC(=O)Oc1oc(-c2ccccc2)nc1/C=N/c1ccccn1` as the compound, how does the “hERG current change (%, negative = inhibition) at 10uM” value read?
Answer: -22.6%

Question: `COc1ccc(OCCn2cc(/C(N)=N/O)c3ccccc32)cc1` was tested. Which “hERG current change (%, negative = inhibition) at 10uM” value did it give?
Answer: -27.8%

Question: `CCOc1ccccc1NC(=O)c1cnccn1` was tested. Which “hERG current change (%, negative = inhibition) at 10uM” value did it give?
Answer: 4.02%

Question: Which “hERG current change (%, negative = inhibition) at 10uM” value does the source give for `COc1ccc(/C(O)=C2/C(=O)C(=O)N(CC3CCCO3)C2c2ccc(OC)c(OC)c2)cc1` (centres unmarked) here?
Answer: 1.45%

Question: How did the “hERG current change (%, negative = inhibition) at 10uM” value turn out when `CCCCN1CCc2c(c3ccccc3n2Cc2ccccc2)C1` was run?
Answer: -72.9%

Question: `Cc1ccc(NC2=NCCCS2)c(C)c1C` was tested. Which “hERG current change (%, negative = inhibition) at 10uM” value did it give?
Answer: -11.5%

Question: Which “hERG current change (%, negative = inhibition) at 10uM” value does the source give for `CCCCCc1c(O)nc(SCCN2CCOCC2)[nH]c1=O.Cl` here?
Answer: -1.61%

Question: How did the “hERG current change (%, negative = inhibition) at 10uM” value turn out when `CCC(C(=O)NCC1CCCO1)N(Cc1ccc(F)cc1)C(=O)CNS(=O)(=O)c1ccccc1` (centres unmarked) was run?
Answer: -7.65%

Question: How did the “hERG current change (%, negative = inhibition) at 10uM” value turn out when `N#Cc1c(-c2ccccc2)c(-c2ccccc2)nn(CC(=O)NNC(=O)Nc2ccc(Cl)cc2)c1=O` was run?
Answer: 0.631%

Question: Which “hERG current change (%, negative = inhibition) at 10uM” value does the source give for `Cc1cc2ncn(C(=O)c3ccc4c(c3)OCO4)c2cc1C` here?
Answer: 7.4%

Question: For `O=C(COc1ccc2c(-c3ccccc3)cc(=O)oc2c1)Nc1cccnc1`, which “hERG current change (%, negative = inhibition) at 10uM” value is on record?
Answer: -21.5%

Question: With `O=C(CC(c1ccccc1)c1ccccc1)NCCOCc1ccccc1` as the compound, how does the “hERG current change (%, negative = inhibition) at 10uM” value read?
Answer: -12.6%

Question: Which “hERG current change (%, negative = inhibition) at 10uM” value does the source give for `COc1ccc(N(CC(=O)NC2CC3CCC2C3)S(=O)(=O)c2ccc(C)c([N+](=O)[O-])c2)cc1` (centres unmarked) here?
Answer: 19.7%

Question: Which “hERG current change (%, negative = inhibition) at 10uM” value does the source give for `Cc1ccc(-c2noc(CCC(=O)N(C)c3ccccc3C)n2)cc1` here?
Answer: -0.529%

Question: With `COc1cccc(/C=N\NC(C)=O)c1OC/C=C/c1ccccc1` as the compound, how does the “hERG current change (%, negative = inhibition) at 10uM” value read?
Answer: 18.4%

Question: `CCN(CC)C(=O)CSc1nnc(SCc2ccc(Cl)cc2)s1` was tested. Which “hERG current change (%, negative = inhibition) at 10uM” value did it give?
Answer: -3.44%

Question: For `O=[N+]([O-])c1ccccc1Nc1c2ccccc2nc2ccccc12`, which “hERG current change (%, negative = inhibition) at 10uM” value is on record?
Answer: -6.84%

Question: With `COC1=C[C@@H]2C3=C([C@@H]2C1=O)[C@@H](NC(C)=O)CCc1cc(OC)c(OC)c(OC)c13` as the compound, how does the “hERG current change (%, negative = inhibition) at 10uM” value read?
Answer: 15.9%

Question: How did the “hERG current change (%, negative = inhibition) at 10uM” value turn out when `CCN(CC)c1ccc(C2NCC(c3ccc([N+](=O)[O-])cc3)O2)cc1` (centres unmarked) was run?
Answer: -1.1%

Question: With `O=C(O)c1cccc(CSc2nnc(-c3ccc(Cl)cc3)o2)c1` as the compound, how does the “hERG current change (%, negative = inhibition) at 10uM” value read?
Answer: 12.5%

Question: How did the “hERG current change (%, negative = inhibition) at 10uM” value turn out when `COc1ccc(/C=C2/SC(=S)N(NS(=O)(=O)c3ccccc3)C2=O)cc1` was run?
Answer: -12%

Question: Which “hERG current change (%, negative = inhibition) at 10uM” value does the source give for `O=C(/C=C/c1ccccc1)OCCN=C1NS(=O)(=O)c2ccccc21` here?
Answer: 2.88%

Question: `CCn1c(C(O)c2ccc(C)cc2)nc2ccccc21` (centres unmarked) was tested. Which “hERG current change (%, negative = inhibition) at 10uM” value did it give?
Answer: -8.71%

Question: `CC(C)n1nnc2ccccc2c1=O` was tested. Which “hERG current change (%, negative = inhibition) at 10uM” value did it give?
Answer: 10%

Question: How did the “hERG current change (%, negative = inhibition) at 10uM” value turn out when `O=C(O)C1CC(=O)N(C2CCCCC2)C1c1ccccc1` (centres unmarked) was run?
Answer: 11.6%

Question: With `O=C(COC(=O)c1ccc(Cl)nc1)NCc1ccc2c(c1)OCO2` as the compound, how does the “hERG current change (%, negative = inhibition) at 10uM” value read?
Answer: 8.06%
